{
  "source": "patent US5744450A",
  "about": "“GnRH analogs” (The Salk Institute for Biological Studies, priority 1995, dated 1998)",
  "test_system": "ovulation in female rats",
  "experiment": "in vivo test of effectiveness to prevent ovulation in female rats",
  "set-up": "species or system rat",
  "settings": "for biological potency in vivo compared with a named peptide: biological testing in vivo, C-terminal variants of antagonists; for Rats Ovulating: injected about noon on day of proestrus, female Sprague-Dawley rats, ovulating/treated",
  "note": "Part of at least one peptide drawing is inferred or uncertain, most often the ends. Numbered stars: 1 amine (or outer) side, 2 acyl side, 3 side chain; on linkers, the order of the positions; unused ones are H or OH. Square brackets hold non-standard residues; d marks the D form. Peptide text beside a SMILES is read from it. * marks the point of attachment. Phe(4-NH(5-NH2triazol-3-yl)) = Nc1nc(Nc2ccc(C[C@H](N)C(=O)O)cc2)n[nH]1; X1 = Nc1nc(Nc2ccc(C[C@@H](N[*:1])C(=O)[*:2])cc2)n[nH]1; X13 = N#CN=C(NCCCC[C@@H](N[*:1])C(=O)[*:2])NCc1ccccn1; X22 = N#CN=C(NCCCC[C@@H](N[*:1])C(=O)[*:2])NCc1ccncc1; X27 = N#CN=C(NCCCC[C@@H](N[*:1])C(=O)[*:2])NCc1cccnc1; X20 = N#CN=C(NCCCC[C@H](N[*:1])C(=O)[*:2])NCc1ccccn1; X21 = N#CN=C(NCCCC[C@H](N[*:1])C(=O)[*:2])NCc1ccncc1; X26 = N#CN=C(NCCCC[C@H](N[*:1])C(=O)[*:2])NCc1cccnc1; X7 = N#CN=C(NCCCC[C@@H](N[*:1])C(=O)[*:2])NC1CCCCC1; X6 = N#CN=C(NCCCC[C@H](N[*:1])C(=O)[*:2])NC1CCCCC1; X25 = CCCNC(=NC#N)NCCCC[C@@H](N[*:1])C(=O)[*:2]; X24 = CCCNC(=NC#N)NCCCC[C@H](N[*:1])C(=O)[*:2]; X10 = CNC(=NC#N)NCCCC[C@@H](N[*:1])C(=O)[*:2]; X9 = CNC(=NC#N)NCCCC[C@H](N[*:1])C(=O)[*:2]; Triazol3yl(1,2,4-5-NH2) = Nc1nc(*)n[nH]1; dPhe(4-Cl) = N[C@H](Cc1ccc(Cl)cc1)C(=O)O; d2Nal = N[C@H](Cc1ccc2ccccc2c1)C(=O)O; Lys(iPr) = CC(C)NCCCC[C@H](N)C(=O)O; d3Pal = N[C@H](Cc1cccnc1)C(=O)O",
  "data": [
    {"compound": "CCNC(=O)[C@@H]1CCCN1C(=O)[C@H](CCCCNC(C)C)NC(=O)[C@H](CC(C)C)NC(=O)[C@@H](Cc1ccc(Nc2n[nH]c(N)n2)cc1)NC(=O)[C@H](Cc1ccc(Nc2n[nH]c(N)n2)cc1)NC(=O)[C@H](CO)NC(=O)[C@@H](Cc1cccnc1)NC(=O)[C@@H](Cc1ccc(Cl)cc1)NC(=O)[C@@H](Cc1ccc2ccccc2c1)NC(C)=O", "note": "(Ac-[d2Nal][dPhe(4-Cl)][d3Pal]S[Phe(4-NH(5-NH2triazol-3-yl))][X1]L[Lys(iPr)]P-NHEt)", "values": [
      {"measurement": "biological potency in vivo compared with a named peptide", "result": "just slightly less biological potency than that reported in TABLE B for Peptide 103B"}
    ]},
    {"compound": "CC(=O)N[C@H](Cc1ccc2ccccc2c1)C(=O)N[C@H](Cc1ccc(Cl)cc1)C(=O)N[C@H](Cc1cccnc1)C(=O)N[C@@H](CO)C(=O)N[C@@H](Cc1ccc(Nc2n[nH]c(N)n2)cc1)C(=O)N[C@H](Cc1ccc(Nc2n[nH]c(N)n2)cc1)C(=O)N[C@@H](CC(C)C)C(=O)N[C@@H](CCCCNC(C)C)C(=O)N1CCC[C@H]1C(=O)NCC(N)=O", "note": "[103A with glycinamide at the C-terminus] (Ac-[d2Nal][dPhe(4-Cl)][d3Pal]S[Phe(4-NH(5-NH2triazol-3-yl))][X1]L[Lys(iPr)]PG-NH2)", "values": [
      {"measurement": "biological potency in vivo compared with a named peptide", "result": "slightly less biologically potent than Peptide 103A"}
    ]},
    {"compound": "CNC(=NC#N)NCCCC[C@H](NC(=O)[C@H](CO)NC(=O)[C@@H](Cc1cccnc1)NC(=O)[C@@H](Cc1ccc(Cl)cc1)NC(=O)[C@@H](Cc1ccc2ccccc2c1)NC(C)=O)C(=O)N[C@H](CCCCNC(=NC#N)NC)C(=O)N[C@@H](CC(C)C)C(=O)N[C@@H](CCCCNC(C)C)C(=O)N1CCC[C@H]1C(=O)N[C@H](C)C(N)=O", "note": "[Peptide 2] (Ac-[d2Nal][dPhe(4-Cl)][d3Pal]S[X9][X10]L[Lys(iPr)]P[dA]-NH2)", "values": [
      {"measurement": "Rats Ovulating", "setting": "dosage 2.0 micrograms", "result": "2/10"},
      {"measurement": "Rats Ovulating", "setting": "dosage 2.5 micrograms", "result": "6/6"}
    ]},
    {"compound": "CC(=O)N[C@H](Cc1ccc2ccccc2c1)C(=O)N[C@H](Cc1ccc(Cl)cc1)C(=O)N[C@H](Cc1cccnc1)C(=O)N[C@@H](CO)C(=O)N[C@@H](CCCCNC(=NC#N)NC1CCCCC1)C(=O)N[C@H](CCCCNC(=NC#N)NC1CCCCC1)C(=O)N[C@@H](CC(C)C)C(=O)N[C@@H](CCCCNC(C)C)C(=O)N1CCC[C@H]1C(=O)N[C@H](C)C(N)=O", "note": "[Peptide 3] (Ac-[d2Nal][dPhe(4-Cl)][d3Pal]S[X6][X7]L[Lys(iPr)]P[dA]-NH2)", "values": [
      {"measurement": "Rats Ovulating", "setting": "dosage 2.0 micrograms", "result": "1/10"},
      {"measurement": "Rats Ovulating", "setting": "dosage 2.5 micrograms", "result": "7/9"}
    ]},
    {"compound": "CC(=O)N[C@H](Cc1ccc2ccccc2c1)C(=O)N[C@H](Cc1ccc(Cl)cc1)C(=O)N[C@H](Cc1cccnc1)C(=O)N[C@@H](CO)C(=O)N[C@@H](CCCCNc1n[nH]c(N)n1)C(=O)N[C@H](CCCCNc1n[nH]c(N)n1)C(=O)N[C@@H](CC(C)C)C(=O)N[C@@H](CCCCNC(C)C)C(=O)N1CCC[C@H]1C(=O)N[C@H](C)C(N)=O", "note": "[Peptide 4] (Ac-[d2Nal][dPhe(4-Cl)][d3Pal]SK(Triazol3yl(1,2,4-5-NH2))[dK](Triazol3yl(1,2,4-5-NH2))L[Lys(iPr)]P[dA]-NH2)", "values": [
      {"measurement": "Rats Ovulating", "setting": "dosage 2.0 micrograms", "result": "1/10"},
      {"measurement": "Rats Ovulating", "setting": "dosage 2.5 micrograms", "result": "0/6"}
    ]},
    {"compound": "CCCNC(=NC#N)NCCCC[C@H](NC(=O)[C@H](CO)NC(=O)[C@@H](Cc1cccnc1)NC(=O)[C@@H](Cc1ccc(Cl)cc1)NC(=O)[C@@H](Cc1ccc2ccccc2c1)NC(C)=O)C(=O)N[C@H](CCCCNC(=NC#N)NCCC)C(=O)N[C@@H](CC(C)C)C(=O)N[C@@H](CCCCNC(C)C)C(=O)N1CCC[C@H]1C(=O)N[C@H](C)C(N)=O", "note": "[Peptide 5] (Ac-[d2Nal][dPhe(4-Cl)][d3Pal]S[X24][X25]L[Lys(iPr)]P[dA]-NH2)", "values": [
      {"measurement": "Rats Ovulating", "setting": "dosage 2.0 micrograms", "result": "1/10"}
    ]},
    {"compound": "CC(=O)N[C@H](Cc1ccc2ccccc2c1)C(=O)N[C@H](Cc1ccc(Cl)cc1)C(=O)N[C@H](Cc1cccnc1)C(=O)N[C@@H](CO)C(=O)N[C@@H](CCCCNC(=NC#N)NCc1ccccn1)C(=O)N[C@H](CCCCNC(=NC#N)NCc1ccccn1)C(=O)N[C@@H](CC(C)C)C(=O)N[C@@H](CCCCNC(C)C)C(=O)N1CCC[C@H]1C(=O)N[C@H](C)C(N)=O", "note": "[Peptide 6] (Ac-[d2Nal][dPhe(4-Cl)][d3Pal]S[X20][X13]L[Lys(iPr)]P[dA]-NH2)", "values": [
      {"measurement": "Rats Ovulating", "setting": "dosage 2.5 micrograms", "result": "0/6"}
    ]},
    {"compound": "CC(=O)N[C@H](Cc1ccc2ccccc2c1)C(=O)N[C@H](Cc1ccc(Cl)cc1)C(=O)N[C@H](Cc1cccnc1)C(=O)N[C@@H](CO)C(=O)N[C@@H](CCCCNC(=NC#N)NCc1cccnc1)C(=O)N[C@H](CCCCNC(=NC#N)NCc1cccnc1)C(=O)N[C@@H](CC(C)C)C(=O)N[C@@H](CCCCNC(C)C)C(=O)N1CCC[C@H]1C(=O)N[C@H](C)C(N)=O", "note": "[Peptide 7] (Ac-[d2Nal][dPhe(4-Cl)][d3Pal]S[X26][X27]L[Lys(iPr)]P[dA]-NH2)", "values": [
      {"measurement": "Rats Ovulating", "setting": "dosage 2.5 micrograms", "result": "3/20"}
    ]},
    {"compound": "CC(=O)N[C@H](Cc1ccc2ccccc2c1)C(=O)N[C@H](Cc1ccc(Cl)cc1)C(=O)N[C@H](Cc1cccnc1)C(=O)N[C@@H](CO)C(=O)N[C@@H](CCCCNC(=NC#N)NCc1ccncc1)C(=O)N[C@H](CCCCNC(=NC#N)NCc1ccncc1)C(=O)N[C@@H](CC(C)C)C(=O)N[C@@H](CCCCNC(C)C)C(=O)N1CCC[C@H]1C(=O)N[C@H](C)C(N)=O", "note": "[Peptide 8] (Ac-[d2Nal][dPhe(4-Cl)][d3Pal]S[X21][X22]L[Lys(iPr)]P[dA]-NH2)", "values": [
      {"measurement": "Rats Ovulating", "setting": "dosage 1.0 micrograms", "result": "5/5"}
    ]}
  ]
}
